The text below walks through data of PubChem BioAssay AID360 (National Center for Advancing Translational Sciences (NCATS), 2006).

Out of some 48,000 compounds screened, about 550 (1.1%) were called active. Inconclusive results (about 4%) are left out. No stated cut-off is given here; in the data, active means potency below about 15 µM; inconclusive means mostly about 16 µM to 33 µM; inactive means weaker than that. Some of the results follow.
Potency means the concentration at half of the fitted maximal effect.

Sequence of UniProt P04062 (P04062 whole entry, looked up): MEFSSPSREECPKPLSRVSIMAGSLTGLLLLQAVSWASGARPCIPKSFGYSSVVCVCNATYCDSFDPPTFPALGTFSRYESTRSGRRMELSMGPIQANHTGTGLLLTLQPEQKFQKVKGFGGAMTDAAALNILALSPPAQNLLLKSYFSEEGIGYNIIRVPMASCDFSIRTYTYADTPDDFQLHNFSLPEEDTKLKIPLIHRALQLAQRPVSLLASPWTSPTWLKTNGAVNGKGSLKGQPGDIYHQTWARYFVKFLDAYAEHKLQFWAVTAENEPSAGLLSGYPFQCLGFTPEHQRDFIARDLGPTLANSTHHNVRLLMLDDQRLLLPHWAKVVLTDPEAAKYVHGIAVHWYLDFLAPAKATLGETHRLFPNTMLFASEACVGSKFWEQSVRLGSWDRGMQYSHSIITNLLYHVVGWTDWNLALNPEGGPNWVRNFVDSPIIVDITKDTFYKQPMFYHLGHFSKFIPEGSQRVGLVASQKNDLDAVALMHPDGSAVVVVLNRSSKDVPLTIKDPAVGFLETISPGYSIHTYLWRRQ

In the test the target is Lysosomal acid glucosylceramidase (Homo sapiens) (UniProt P04062). Briefly: Glucocerebrosidase.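 Further: the screen sought inhibitors.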 Particulars: purified enzyme, resorufin glucoside fluorescence (screen aimed at inhibitors), 20 min. Summed up:
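Normal human glucocerebrosidase (0.2 nM final) was assayed with resorufin β-D-glucopyranoside (30 uM final) in 50mM citric acid/KH2PO4, 10mM sodium taurocholate, 0.01% tween-20, pH 5.9. Compounds were titrated; fluorescence (Ex 548, Em 600) read after 20 min at RT.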
With `CCOC(=O)CNC(=O)Cn1cnc2c(nnn2-c2ccc(F)cc2)c1=O`, the Potency was inactive: > 76.9 µM.

On to `COc1ccc(CN2CC(C(=O)NCCN3CCN(c4ccccc4F)CC3)CC2=O)cc1` (centres undefined), for which the Potency was inactive: > 76.9 µM.

In the case of `COc1cc(NC(=O)c2cccs2)cc(OC)c1`, the Potency was inactive: > 76.9 µM.

Consider `COc1cc(OC)c(C2C(C#N)=C(N)Oc3cc(C)n(CCCN4CCOCC4)c(=O)c32)cc1OC` (centres undefined), for which the Potency was inactive: > 76.9 µM.

Turning to `N#C/C(C(=O)c1ccccc1)=C1/CCCCCN1`, the Potency is inactive: > 76.9 µM.

Regarding `COc1ccc(S(=O)(=O)N2CCOCC2)cc1C(=O)Nc1nc2ccccc2s1`, the Potency is inactive: > 76.9 µM.

Consider `Cc1ccc(S(=O)(=O)N[C@H](C(=O)N2CCC(C(=O)NCC(=O)O)CC2)C(C)C)cc1`, for which the Potency is inactive: > 76.9 µM.

For `CC(=O)Nc1ccc(S(=O)(=O)N2CCN(C3CCCCCCC3)CC2)cc1`, the Potency was inactive: > 76.9 µM.

In the case of `O=C(O)c1ccc(OCc2occc2C(=O)O)cc1`, the Potency was inactive: > 76.9 µM.

As to `CCCCCc1ccc(CC(=O)O)cc1`, the Potency is inactive: > 76.9 µM.

Consider `CCOc1cc(C(=O)Nc2ncccn2)cc(OCC)c1OCC`, for which the Potency was inactive: > 76.9 µM.

As to `CC(=O)c1ccc(NC(=O)CCc2c(C)nc3ncnn3c2C)cc1`, the Potency is inactive: > 76.9 µM.

In the case of `COc1ccc(N(CC(=O)N2CCc3ccccc32)S(=O)(=O)c2c(C)noc2C)cc1`, the Potency was inactive: > 76.9 µM.

As for `C=CCn1c(SCc2ccc(Cl)cc2)nc2c1c(=O)[nH]c(=O)n2C`, the Potency is inactive: > 76.9 µM.

Turning to `O=C(Nc1ccccc1N1CCN(c2ccc(F)cc2)CC1)c1ccccc1`, the Potency is inactive: > 76.9 µM.

Consider `COc1ccc(/C(O)=C2/C(=O)C(=O)N(CCCN(C)C)C2c2cccnc2)cc1` (centres undefined), for which the Potency is inactive: > 76.9 µM.

With `O=C(COC(=O)c1ccc(S(=O)(=O)N2CCCC2)cc1)NCc1ccccc1`, the Potency was inactive: > 76.9 µM.

As for `COc1ccc(CCNC(=O)c2cc(-c3cccs3)on2)cc1OC`, the Potency is inactive: > 76.9 µM.

For the compound `COc1ccc(Cn2c(=O)[nH]c3cc(C(=O)NCCCN4CCCCC4)ccc3c2=O)cc1`, the Potency was inactive: > 76.9 µM.

`CN(c1ccc(O)cc1)c1nc(-c2ccccc2)cs1`: the Potency entry was “inactive”.

As to `CC(C)CNC(=O)c1cccc(C(=O)NCC(C)C)c1`, the Potency was inactive: > 76.9 µM.

On to `CN1CCN(CC(O)COc2ccc(OCC(O)CN3CCN(C)CC3)cc2)CC1` (centres undefined), for which the Potency is inactive: > 76.9 µM.

With `O=C(Nc1ccc(C2CCCCC2)cc1)C1CCN(c2ncccn2)CC1`, the Potency is inactive: > 76.9 µM.

In the case of `CCOC(=O)c1cc2c(=O)n3ccccc3nc2n(Cc2ccc(Cl)cc2)c1=N`, the Potency was inactive: > 76.9 µM.

Consider `OCCN1CCN(CC(O)COc2ccc3c(c2)OCO3)CC1` (centres undefined), for which the Potency was inactive: > 76.9 µM.

Consider `O=C(Oc1cccnc1)c1ccc(Cl)cc1`, for which the Potency was inactive: > 76.9 µM.

For the compound `Cc1oc(-c2cccc(Cl)c2)nc1CN1CCC(C(=O)NCC2CCCO2)CC1` (centres undefined), the Potency is inactive: > 76.9 µM.

For the compound `CN1CCOc2cc(S(=O)(=O)Nc3ccc(F)cc3)ccc21`, the Potency is inactive: > 76.9 µM.

`O=C(CSC1=Nc2ccccc2C2=NC(CC(=O)NCc3ccco3)C(=O)N12)NCC1CCCO1` (centres undefined): the Potency is inactive: > 76.9 µM.

`CSC1=C(C#N)C(c2cccc(Br)c2)CC(=O)N1` (centres undefined): the Potency is inactive: > 76.9 µM.

With `O=C(O)CCN1C(=O)C(=C2CCCCCC2)SC1=S`, the Potency is inactive: > 76.9 µM.

For the compound `CC1(C)Cn2c(nnc2-c2ccccc2)S1`, the Potency is inactive: > 76.9 µM.

Consider `CCNc1nc(N)nc(Oc2ccc(OCCOc3ccc(Cl)cc3Cl)nn2)n1`, for which the Potency was inactive: > 76.9 µM.

Consider `CCCOC(=O)CCn1c(=S)oc2ccccc21`, for which the Potency is inactive: > 76.9 µM.

In the case of `Cc1onc(-c2ccccc2Cl)c1C(=O)Nc1cccc2nsnc12`, the Potency was inactive: > 76.9 µM.

Take `Cc1nc2ncnn2c(C)c1CCC(=O)Nc1csc(N)n1`: the Potency was inactive: > 76.9 µM.

Take `Cc1cc(C(=O)Nc2sc(C)c(C)c2C#N)c(C)o1`: the Potency is inactive: > 76.9 µM.

For the compound `CCOC(=O)c1cnc(SCC(=O)Nc2sc(C)c(C)c2C#N)nc1N`, the Potency was inactive: > 76.9 µM.

In the case of `Cc1cccc(C2N(c3nccs3)C(=O)C3CCCN32)c1` (centres undefined), the Potency was inactive: > 76.9 µM.

With `O=c1c2c([nH]c3ccccc13)CCCCCC2`, the Potency result was “inactive”.

In the case of `O=C(Nc1cccc2nsnc12)c1cccs1`, the Potency is inactive: > 76.9 µM.

Regarding `O=C(O)CC(C(=O)O)c1cn(Cc2ccccc2)c2ccccc12` (centres undefined), the Potency is inactive: > 76.9 µM.

With `CCOC(=O)C1CCN(C(=O)c2ccccc2N(C)S(C)(=O)=O)CC1`, the Potency was inactive: > 76.9 µM.

With `COc1cccc(OC)c1C(=O)N1CCOCC1`, the Potency was inactive: > 76.9 µM.

In the case of `CCOc1ccccc1N=C1NC(=O)CS1`, the Potency was inactive: > 76.9 µM.

For the compound `COC(=O)NCC1(C)CC(NC(=O)OC)CC(C)(C)C1` (centres undefined), the Potency was inactive: > 76.9 µM.

Consider `Cc1cc(NC(=O)CCC(=O)N(c2cccnc2)C(C(=O)NC2CCCC2)c2ccccc2F)no1` (centres undefined), for which the Potency is inactive: > 76.9 µM.

For the compound `Cc1nc2ccccc2n1CC(O)Cn1c(C(F)(F)F)nc2ccccc21` (centres undefined), the Potency was inactive: > 76.9 µM.

On to `CCCOc1ccccc1C1NC(=O)NC(C)=C1C(=O)OCCOCC` (centres undefined), for which the Potency was inactive: > 76.9 µM.

As to `Brc1cc2[nH]cnc2c2ccccc12`, the Potency was inactive: > 76.9 µM.

Consider `Cc1csc(NC(=O)CCCSc2nc3ccccc3s2)n1`, for which the Potency is inactive: > 76.9 µM.

On to `O=C(CC1Nc2ccccc2NC1=O)NCC1COc2ccccc2O1` (centres undefined), for which the Potency is inactive: > 76.9 µM.

As for `CN(CC(=O)N1CCCC1)S(=O)(=O)c1cc(Cl)ccc1Cl`, the Potency was inactive: > 76.9 µM.

For `O=C(NCc1nnc2n1CCCCC2)c1ccc(Cl)cc1Cl`, the Potency was inactive: > 76.9 µM.

On to `O=C(c1ccccc1)N(c1ccccc1)C1C=CS(=O)(=O)C1` (centres undefined), for which the Potency is inactive: > 76.9 µM.

As for `CC12CC(NC(=O)N1c1cccc(C(=O)NCc3ccc4c(c3)OCO4)c1)c1cc(Cl)ccc1O2` (centres undefined), the Potency was inactive: > 76.9 µM.

With `COc1cc(-c2nnc3sc(-c4ccncc4)nn23)cc(OC)c1OC`, the Potency was inactive: > 76.9 µM.

As for `C=CCn1c(=O)c2ccccc2n2c(SCc3c(C(=O)OCC)oc4ccccc34)nnc12`, the Potency is inactive: > 76.9 µM.

As for `N#Cc1ccsc1NC(=O)CSc1ncn[nH]1`, the Potency is inactive: > 76.9 µM.
